The target of test [1] is T1, HA-tagged Samd14-Ckip1 CPI chimeric protein (mouse | not stated) (UniProt Q8K070+Q9JIY0).
T1 sequence: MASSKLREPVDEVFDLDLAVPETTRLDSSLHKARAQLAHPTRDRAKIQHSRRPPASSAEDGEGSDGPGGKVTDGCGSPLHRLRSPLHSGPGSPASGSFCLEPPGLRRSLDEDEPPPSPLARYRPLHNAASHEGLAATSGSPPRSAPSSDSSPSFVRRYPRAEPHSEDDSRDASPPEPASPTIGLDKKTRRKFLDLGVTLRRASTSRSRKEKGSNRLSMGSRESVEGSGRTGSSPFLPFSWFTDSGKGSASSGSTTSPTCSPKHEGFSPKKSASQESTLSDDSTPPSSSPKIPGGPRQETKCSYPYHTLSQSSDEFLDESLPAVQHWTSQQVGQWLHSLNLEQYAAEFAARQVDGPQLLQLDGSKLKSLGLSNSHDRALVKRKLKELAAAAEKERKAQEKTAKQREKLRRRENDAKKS
In words: co-IP; anti-HA agarose beads on lysates (1% NP-40 lysis buffer) of GFP-sorted G1E-ΔEnh cells expressing HA-tagged Samd14 constructs or empty vector; Western blot for Capzβ, Capzα1, Capzα2. Background: A western blot detects proteins with antibodies after separation by electrophoresis.

The target in test [2] is T2, HA-tagged Samd14-R43/45 A (mouse) (UniProt Q8K070).
T2 sequence: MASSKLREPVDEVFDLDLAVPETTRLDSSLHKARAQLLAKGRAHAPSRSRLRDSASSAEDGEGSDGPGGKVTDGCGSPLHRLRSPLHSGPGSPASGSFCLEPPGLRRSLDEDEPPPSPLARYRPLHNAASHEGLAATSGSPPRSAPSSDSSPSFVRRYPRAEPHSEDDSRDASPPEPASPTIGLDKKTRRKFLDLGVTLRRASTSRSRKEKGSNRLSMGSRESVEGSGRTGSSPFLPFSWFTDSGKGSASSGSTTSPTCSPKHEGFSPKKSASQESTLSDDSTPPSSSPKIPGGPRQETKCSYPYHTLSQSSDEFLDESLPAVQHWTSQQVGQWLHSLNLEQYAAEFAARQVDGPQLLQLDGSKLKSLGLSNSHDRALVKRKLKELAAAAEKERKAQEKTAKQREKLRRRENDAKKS
Described as above.

Test [3] concerns the target T3, HA-tagged Samd14-∆114–124 (mouse) (UniProt Q8K070).
T3 sequence: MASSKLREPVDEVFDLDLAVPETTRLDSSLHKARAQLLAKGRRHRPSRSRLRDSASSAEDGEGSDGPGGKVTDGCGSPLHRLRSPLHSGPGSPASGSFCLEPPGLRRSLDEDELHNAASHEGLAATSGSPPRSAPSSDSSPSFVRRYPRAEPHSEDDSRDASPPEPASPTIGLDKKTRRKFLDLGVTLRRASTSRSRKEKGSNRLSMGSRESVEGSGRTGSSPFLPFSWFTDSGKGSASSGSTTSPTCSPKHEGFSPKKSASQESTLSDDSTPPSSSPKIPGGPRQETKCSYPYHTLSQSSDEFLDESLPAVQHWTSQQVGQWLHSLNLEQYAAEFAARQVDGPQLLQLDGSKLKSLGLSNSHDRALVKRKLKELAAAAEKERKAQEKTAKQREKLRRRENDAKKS
The description is as above.

For test [4], the target named is T4, HA-tagged Samd14-∆170–180 (mouse) (UniProt Q8K070).
T4 sequence: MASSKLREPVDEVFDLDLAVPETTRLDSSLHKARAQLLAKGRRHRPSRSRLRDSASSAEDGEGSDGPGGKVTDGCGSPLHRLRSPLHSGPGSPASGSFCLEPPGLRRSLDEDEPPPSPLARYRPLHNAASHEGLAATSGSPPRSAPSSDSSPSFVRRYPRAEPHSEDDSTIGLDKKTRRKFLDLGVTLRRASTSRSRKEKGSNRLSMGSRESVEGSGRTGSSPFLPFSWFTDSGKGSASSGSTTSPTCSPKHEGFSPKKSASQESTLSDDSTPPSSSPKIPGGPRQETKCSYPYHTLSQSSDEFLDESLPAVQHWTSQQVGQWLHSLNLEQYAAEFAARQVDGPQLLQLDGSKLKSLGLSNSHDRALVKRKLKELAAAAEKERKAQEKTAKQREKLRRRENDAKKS
The description is as above.

The target of test [5] is T5, HA-tagged Samd14-∆272–295 (mouse) (UniProt Q8K070).
T5 sequence: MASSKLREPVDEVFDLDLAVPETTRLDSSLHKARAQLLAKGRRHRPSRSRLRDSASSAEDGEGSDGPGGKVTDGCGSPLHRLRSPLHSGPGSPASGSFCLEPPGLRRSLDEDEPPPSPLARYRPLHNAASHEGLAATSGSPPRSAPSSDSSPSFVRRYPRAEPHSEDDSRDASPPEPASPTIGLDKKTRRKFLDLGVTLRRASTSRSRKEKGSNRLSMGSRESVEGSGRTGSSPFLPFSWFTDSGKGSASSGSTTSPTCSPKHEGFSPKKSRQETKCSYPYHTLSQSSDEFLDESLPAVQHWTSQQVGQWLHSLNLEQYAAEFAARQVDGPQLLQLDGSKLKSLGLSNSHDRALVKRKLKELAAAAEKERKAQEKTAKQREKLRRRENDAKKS
The test is described as above.

The target of test [6] is T6, HA-tagged Samd14-∆38–54 (Samd14 lacking the capping protein binding domain) (mouse) (UniProt Q8K070).
T6 sequence: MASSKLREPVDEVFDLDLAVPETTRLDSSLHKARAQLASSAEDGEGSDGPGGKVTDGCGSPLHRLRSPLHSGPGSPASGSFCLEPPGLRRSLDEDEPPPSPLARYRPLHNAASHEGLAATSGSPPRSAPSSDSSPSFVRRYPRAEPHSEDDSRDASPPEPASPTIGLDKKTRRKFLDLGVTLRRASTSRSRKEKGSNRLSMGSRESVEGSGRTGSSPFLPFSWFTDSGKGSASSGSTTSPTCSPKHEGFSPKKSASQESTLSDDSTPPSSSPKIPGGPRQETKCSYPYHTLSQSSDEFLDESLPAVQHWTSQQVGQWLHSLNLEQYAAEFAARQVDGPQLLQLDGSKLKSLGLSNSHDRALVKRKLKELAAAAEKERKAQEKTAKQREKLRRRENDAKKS
The test is described as above.

The target in test [7] is T7, HA-tagged full-length Samd14 (sterile alpha motif domain-containing protein 14) (mouse) (UniProt Q8K070).
T7 sequence: T2 sequence with A43R, A45R
Described as above.

For test [8], the target named is T8, Samd14, endogenous in wild type G1E cells (mouse (endogenous in G1E)) (UniProt Q8K070).
T8 sequence: T2 sequence with A43R, A45R
The experiment in a line: co-IP; endogenous Samd14 precipitated from WT G1E cell lysate (1% NP-40 lysis buffer) with anti-Samd14 antibody or rabbit IgG control and Protein A beads; Western blot.

Test [9] concerns the target T9, Samd14, endogenous in lineage-depleted mouse spleen cells (mouse (endogenous in spleen cells)) (UniProt Q8K070).
T9 sequence: T2 sequence with A43R, A45R
In words: co-IP; endogenous Samd14 precipitated with anti-Samd14 antibody or rabbit IgG control from Lin- WT spleen lysates of PHZ-treated mice; also PBS control mice, sorted CD71+Ter119- and CD71+Ter119+ cells, and +/- SCF (10 ng/ml, 5 min); Western blot for Capzβ.

Where a chain is given by its changes, count along the chain named. Results are given in words; binding and its absence hold for the method and conditions named. In cells and extracts the contact can be indirect. Some binding calls cover weakened binding; strength is not graded here. For some of these results: Where a sequence is shown, tags or fusion partners need not be part of it.

Regarding “Capzα2 (F-actin capping protein α2 subunit), endogenous in G1E cells (from UniProt P47754 1-286)”, the binding entry is reported as “no binding” in [1]; “binds” in [2]; “binds” in [3]; “binds” in [4]; “binds” in [5]; “no binding” in test [6]. The binding result in test [7] was “binds”.
As for “Capzβ (F-actin capping protein β subunit), endogenous in G1E cells (from UniProt P47757 1-277)”, the binding entry in test [8] is recorded as “binds”; in test [1] it was “no binding”; in test [2], “binds”; in test [3], “binds”; in [4], “binds”; in test [5], “binds”. In addition, the binding result in [6] is on record as “no binding”; in test [7] it was “binds”.
As for “Capzβ, endogenous in lineage-depleted mouse spleen cells (from UniProt P47757 1-277)”, the binding result in test [9] is listed as “binds”.

The values above are taken from publication PMC9282853.
